In all, about 46,000 compounds went through this assay and about 60 (0.1%) were called active. Inconclusive results (about 3%) are left out. Calls follow the shape of the dose curve; as a rule, active = well fitted inhibition curve with a large enough effect; inconclusive = small, poorly fitted or top-dose-only effect; inactive = no such curve, though single readings can be large or run the other way. The list shows a part of the results.
Experiment: Primary qHTS assay for Inhibitors of ovarian cancer metastasis using an organotypic tumor microenvironment (TME) model. Also: nearly all actives have a fitted effect of over 65% in size.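 As to activity change, negative = inhibition: plate controls were DMSO wells for no effect and tomatine positive control wells for full effect.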
Details: SKOV3ip1-GFP adhesion/invasion on 3D omental model, fluorescence; series mostly up to 45.8 µM; activity change, negative = inhibition: at the top concentration
Summary of the method: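 qHTS, 4-pt dose (0.36-46 umol/L); SKOV3ip1-GFP, 1,200 cells/well, no FBS; primary omental fibroblast/mesothelial co-culture 48 h pre-grown; 2 h RT + 16 h 37 C; PBS wash, 4% PFA; GFP count 488/509 nm.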

Activity change, negative = inhibition, inactive:
O=C(Nc1cccc(C(=O)N2CCN(c3ccc(Cl)cc3)CC2)c1)c1nsc2ccccc12 -2.13%
Cc1oc(-c2ccc(Cl)cc2)nc1CS(=O)CC(=O)NCc1ccc(Cl)cc1 (stereo not drawn) 15.2%
Cc1cc2nc(-c3cc(NC(=O)c4cc5ccccc5o4)ccc3Cl)oc2cc1C -15.5%
CCCNC(=O)C1CCN(S(=O)(=O)c2ccc3c(c2)CCCN3C(C)=O)CC1 -11.5%
Cc1cc(C)n2nc(SCC(=O)Nc3ccccc3)nc2n1 12.2%
Cc1ccc2nc(-c3ccc(O)cc3)c(Nc3ccc4c(c3)OCO4)n2c1 1.1%
CC(C)N(Cc1ccccc1)C(=O)CCS(=O)(=O)c1cc2c(cc1Cl)NC(=O)CO2 1.75%
COc1ccccc1N1CCN(C(CNC(=O)C(=O)NCCCN(C)C)c2cccnc2)CC1 (stereo not drawn) -2.18%
COc1ccc(N(CC(=O)NCCc2cccc(C)c2)S(=O)(=O)c2c(C)nn(C)c2C)cc1 22.9%
Cc1ccccc1OCc1nnc(SCc2cc(=O)c3ccccc3[nH]2)n1C 2.76%
COCc1cc(C)nc2sc3c(c12)NC(c1ccc(O)cc1)N(c1ccc(OC)cc1)C3=O (stereo not drawn) 5.95%
CCOc1ccc(-c2c(C)nn3c(C)c(C(=O)Nc4ccccc4C(=O)OC)cnc23)cc1OCC 1.75%
Cn1c(=O)c2c(ncn2CC(O)CO)n(C)c1=O (stereo not drawn) 1.87%
COC(=O)c1cccc(Nc2c(-c3ccc(O)c(OC)c3)nc3nc[nH]n23)c1 20.2%
Cc1cccc(NC(=O)CSc2nc3ccc(NC(=O)c4ccco4)cc3s2)c1 5.1%
COc1ccccc1NC(=O)Cc1c(C(=O)O)[nH]c2ccc(Cl)cc12 -7.09%
COc1cc(Cn2c(=O)sc3ccccc32)ccc1OC(C)C -0.374%
Cc1ccc(-c2nc3cc(C(C)C)ccc3o2)cc1NC(=O)c1cccs1 12.1%
CCCCOc1ccc(CNC(=O)C2CCN(c3nnc(-n4cccc4CNc4ccc(C)cc4)s3)CC2)cc1 -1.05%
COc1cc(Br)c(/C=C(\C#N)c2nc3ccccc3[nH]2)cc1OC -8.05%
COc1cccc(NC(=O)CCNS(=O)(=O)c2ccc(Br)s2)c1 -1.25%
COc1ccc(CNC(=O)Cc2csc3ccccc23)cc1OC -0.244%
Cc1ccc(C)c(N2CCN(CCCNC(=O)Nc3cc(Cl)ccc3C)CC2)c1 -0.328%
Cc1ccc(N2C(=O)CSC23C(=O)N(CC(=O)NC2CCCCC2)c2ccccc23)cc1 (stereo not drawn) -26.4%
COc1cccc(C(=O)NCC(c2ccc(N(C)C)cc2)N2CCCC2)c1OC (stereo not drawn) 2.21%
CC(C)CN1CCc2nc(N3CCN(c4ncccn4)CC3)ncc2C1 2.68%
Cc1cn2c(=O)c(S(=O)(=O)NCCc3ccccc3)c(C)nc2s1 4.97%
COc1ccc2nc(NC(=O)c3nc(SCc4ccc(F)cc4)ncc3Cl)sc2c1 -6.9%
CCOc1ccc(-c2nnc(SCC(=O)NCCC(C)C)nc2-c2ccc(OCC)c(OC)c2)cc1OC -11.7%
CCc1ccccc1NC(=O)C1CCC(CNS(=O)(=O)c2ccc3c(c2)CC(C)N3C(C)=O)CC1 (stereo not drawn) -9.6%
Cc1ccc(S(=O)(=O)c2nnn3c2nc(N2CCN(c4ccc(F)cc4)CC2)c2cc(Cl)ccc23)cc1C 7.13%
Cc1ccc(N2CCN(C(=O)Cc3c(C(=O)O)c(C)cn3C)CC2)c(C)c1 3.07%
CCOc1ccc(OCC)c(NC(=O)C2CCN(S(=O)(=O)c3ccc(Br)s3)CC2)c1 -5.46%
COc1ccc2nc(SCC(=O)c3c(C)[nH]c4ccccc34)nc(C)c2c1 18.5%
OCc1ccc(-c2nn(Cc3ccccc3)c3ccccc23)o1 1.35%
NC(=O)c1cccnc1 -23.8%
COc1cccc(-n2c(=O)c3c(C)c(C(=O)N(C)C)sc3n(CC(=O)NCCc3ccc(OC)c(OC)c3)c2=O)c1 11.1%
Cc1cccc(NC(=O)N2CCc3c(sc4c3CCCC4)C2c2ccc(F)cc2)c1 (stereo not drawn) 2.52%
Cc1nc2nc(NCc3cccc(Br)c3)[nH]n2c(=O)c1Cc1ccccc1 2.06%
O=C(Nc1cccc(Cl)c1Cl)c1ccc2c(c1)N(Cc1cccc(Cl)c1)C(=O)c1ccccc1S2(=O)=O 2.33%
COc1ccc2oc(=O)c(C(=O)NCCc3c(C)[nH]c4c(Cl)cccc34)cc2c1 4.8%
COc1cc2ccccc2cc1C(=O)Nc1cccc(-c2nc3cc(C)c(C)cc3o2)c1C 14.6%
CCC(=O)N1CCc2cc(Br)cc(S(=O)(=O)N3CCCC(C(=O)Nc4ccc(OC)c(Cl)c4)C3)c21 (stereo not drawn) 7.42%
Cn1nnnc1SCCNCc1ccc(F)cc1 -13.6%
Cc1ccc(CN(C(=O)COc2cccc([N+](=O)[O-])c2)c2ccccn2)o1 6.37%
O=S(=O)(Nc1ccc(Cl)cc1)c1ccc(NS(=O)(=O)c2ccc3c(c2)OCCO3)cc1 33.6%
N#C/C(=C/c1cn(Cc2ccc(F)cc2)c2ccccc12)C(=O)Nc1cccc(Cl)c1 -1.73%
CCn1c2ccccc2c2nnc(SCCN3CCCCC3)nc21 1.38%
COc1ccccc1Nc1nn2c(=O)c3ccc(C(=O)NCCCOC(C)C)cc3nc2s1 -5.62%
COC(=O)CC1c2cc(OC)c(OC)cc2CCN1C(=O)Nc1ccc(C)cc1Cl (stereo not drawn) 12.8%
CCOc1ccc(CNC(=O)CCC(=O)N2CC(C)Sc3ccccc32)cc1 (stereo not drawn) 22.9%
COc1ccc(OC)c(CNC(=O)CCCn2ccc3cc(S(=O)(=O)N4CCCC4)ccc32)c1 -26.4%
Cc1ccc(NC(=O)c2cnc(SCC(=O)N3CCOCC3)n(C)c2=O)cc1 -1.33%
CCC1CN(C(=O)N2CCC(C(=O)NCCN(C)C)CC2)c2ccccc2O1 (stereo not drawn) -3.89%
CCOc1ccc(OCC)c(NC(=O)Cn2ncc3c4ccccc4n(Cc4ccccc4)c3c2=O)c1 -1.98%
CCc1ccc(CNC(=O)c2cccc(-n3cnc4cccnc43)c2C)cc1 17.8%
CN(c1ccc(Cl)cc1)S(=O)(=O)c1nnc(NC(=O)C2CCCCC2)s1 7.16%
COc1ccc(C)cc1N(C)C(=O)c1c(C)oc2ncnc(N3CCOCC3)c12 5.01%
COC(=O)c1c(C)sc(-c2c(-c3ccc4c(c3)OCCO4)[nH]c3c2c(=O)n(C)c(=O)n3C)c1O -3.18%
CCNC(=O)c1cnc2sc(N3CCCCCC3)nn2c1=O 17.7%
COc1cc(C(=O)Oc2c(Sc3ccc(C)cc3)c(C)nn2-c2ccccc2)cc(OC)c1OC 1.88%
Cc1ccn2c(Nc3ccc4c(c3)OCCO4)c(-c3ccc(Cl)s3)nc2c1 -11.9%
CN(C1CCCCC1)S(=O)(=O)c1ccc2c(c1)c(=O)c(C(=O)NCCc1ccccc1)cn2C 12%
Cc1ccc2c(c1)cc(C(=O)Nc1ccc(F)cc1F)n2C -5.78%
Cc1cccc(NC(=O)C2CCCN(S(=O)(=O)c3cnc[nH]3)C2)c1C (stereo not drawn) 1.21%
Nc1nnc(SCC(=O)Nc2ccccc2C(F)(F)F)s1 -22.9%
COC(=O)c1n[nH]n(-c2ccccc2)c1=O -6.93%
O=C(NCCc1ccc(Cl)cc1)c1ccc(CS(=O)Cc2cccc(Cl)c2)o1 (stereo not drawn) 3.11%
Cc1oc(-c2ccc(C(=O)Nc3cc(F)ccc3F)cc2)nc1COc1ccccc1 0.89%
Cc1ccc(C(=O)N(Cc2ccc(N(C)C)cc2)Cc2ccco2)cc1 -2.1%
Cn1c(=O)c2cc(C(=O)N3CCN(c4ccc(Cl)cc4)CC3)sc2c2ccccc21 -8.86%
O=C(c1ccc(OCCN2CCCCC2)cc1)c1c(-c2ccc(O)cc2)sc2cc(O)ccc12 -6.78%
Cc1nc(-c2ccccc2)sc1CCNS(=O)(=O)c1ccc(Br)cc1 19.4%
O=C1c2ccccc2-c2n[nH]c3cccc1c23 -28.3%

outcome, inactive:
CCc1ccc(NC(=O)CSc2nc3n[nH]c(C)c3c(=N)n2-c2ccccc2C)cc1
COc1cccc(C(=O)Nc2ccccc2OCc2cc(=O)n3cc(C)ccc3n2)c1
Cc1cc(NC(=O)C(C)C)cc(-c2nc3ncccc3o2)c1O
N#Cc1c(NC(=O)c2cc3nc(-c4ccc(Br)cc4)cc(C(F)(F)F)n3n2)sc2c1CCCC2
O=C1CC(c2ccccc2C(F)(F)F)c2c(c3ccccc3[nH]c2=O)O1 (stereo not drawn)
CCOC(=O)C1=C(CS(=O)(=O)c2c(C)cc(C)cc2C)NC(=O)NC1c1cccc(OC)c1 (stereo not drawn)
CCOc1ccc(NC(=O)C2Cc3ccccc3N2C(=O)c2ccccc2)cc1 (stereo not drawn)
COCCn1c(C)cc(O)c(C(c2ccccc2)N2CCN(C)CC2)c1=O (stereo not drawn)
COc1ccc2c(c1)CCc1c(C(=O)Nc3cc(C)ccc3O)noc1-2
CCc1nn(CC(=O)N2CCCCC2)c(=O)c2cc3sccc3n12
CC(C)OCCCNC(=O)c1ccc(-n2c(-c3ccccc3)cc3c2CCCC3)cc1
O=C(COC(=O)CCCC1=NS(=O)(=O)c2ccccc2N1)Nc1ccc(Br)cc1
O=C(Nc1ccc(F)cc1)[C@H](CSCc1ccccc1)N1Cc2ccccc2C1=O
COc1ccc(-c2nc(C)c(CCNC(=O)Cc3ccc(F)cc3)s2)cc1OC
CCc1ccccc1NC(=O)N1CCN(c2cc(-c3noc(C)n3)ccc2C)CC1
CCOC(=O)c1cccc(NC(=O)C(CC(C)C)N2Cc3ccccc3C2=O)c1 (stereo not drawn)
O=C(CSc1nccn1-c1ccccc1)Nc1nc2ccccc2s1
CCOc1ccc(CCNC(=O)CCCn2nc(C)c3sc4ccccc4c3c2=O)cc1OCC
CCCc1cc(=O)[nH]c(Nc2ccc(C(=O)O)cc2)n1
COc1cc(-c2noc(-c3ccc(NCc4cccnc4)c([N+](=O)[O-])c3)n2)cc(OC)c1OC
COc1cccc(NC(=O)CN(C)S(=O)(=O)c2ccc3nc(C)sc3c2)c1
CCOc1ccccc1NC(=O)c1c(NC(=O)c2ccccc2C)sc2c1CCC(C)C2 (stereo not drawn)
CCC(C)NC(=O)c1cnn(-c2ccc(Cl)cc2)c1C1CCN(C(=O)OC(C)(C)C)CC1 (stereo not drawn)
CCOC(=O)c1cc(NC(=O)c2ccc(F)cc2)c(=O)n2c1oc1ccccc12
